Results are given in words; binding and its absence hold for the method and conditions named. Binding seen in cells or lysates may run through a third protein. Some binding calls cover weakened binding; strength is not graded here. For part of these data: Tags and fused reporters may be left off the sequences shown.

Amino acid sequences for entries named in this document (tags omitted). A change or cut given only in a name is not applied to a line headed by its entry. Residues count along the entry.
UniProt P41091: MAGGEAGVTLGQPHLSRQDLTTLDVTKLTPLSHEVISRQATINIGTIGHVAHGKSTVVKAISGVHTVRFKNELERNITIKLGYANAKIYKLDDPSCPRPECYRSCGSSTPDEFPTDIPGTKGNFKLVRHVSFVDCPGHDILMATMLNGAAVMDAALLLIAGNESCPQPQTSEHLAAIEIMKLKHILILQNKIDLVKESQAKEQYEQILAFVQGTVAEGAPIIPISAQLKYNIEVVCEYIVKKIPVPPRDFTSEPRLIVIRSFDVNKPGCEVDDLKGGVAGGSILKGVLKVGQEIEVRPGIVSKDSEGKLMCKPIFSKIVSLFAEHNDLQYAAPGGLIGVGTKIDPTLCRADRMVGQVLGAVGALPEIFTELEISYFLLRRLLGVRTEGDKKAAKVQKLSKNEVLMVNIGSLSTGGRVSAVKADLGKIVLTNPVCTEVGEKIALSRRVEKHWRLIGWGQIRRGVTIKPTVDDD
^FLAGheIF2γ (amino acids 1–457) expressed in yeast: residues 1-457 of P41091
UniProt P32481: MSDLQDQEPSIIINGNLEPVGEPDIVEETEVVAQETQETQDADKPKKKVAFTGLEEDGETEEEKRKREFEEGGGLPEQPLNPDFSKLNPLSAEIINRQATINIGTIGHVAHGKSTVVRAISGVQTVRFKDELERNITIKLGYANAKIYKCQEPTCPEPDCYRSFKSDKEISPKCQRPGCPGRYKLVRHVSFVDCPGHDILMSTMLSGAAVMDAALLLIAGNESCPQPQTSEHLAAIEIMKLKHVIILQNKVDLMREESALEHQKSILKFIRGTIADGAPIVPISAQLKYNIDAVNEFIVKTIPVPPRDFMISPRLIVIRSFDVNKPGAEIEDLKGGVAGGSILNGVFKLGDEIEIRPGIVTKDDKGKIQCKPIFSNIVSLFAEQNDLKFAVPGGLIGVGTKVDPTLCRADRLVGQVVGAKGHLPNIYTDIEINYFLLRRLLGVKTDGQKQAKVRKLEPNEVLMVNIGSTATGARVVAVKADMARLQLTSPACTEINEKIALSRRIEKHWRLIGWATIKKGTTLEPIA
UniProt O75794: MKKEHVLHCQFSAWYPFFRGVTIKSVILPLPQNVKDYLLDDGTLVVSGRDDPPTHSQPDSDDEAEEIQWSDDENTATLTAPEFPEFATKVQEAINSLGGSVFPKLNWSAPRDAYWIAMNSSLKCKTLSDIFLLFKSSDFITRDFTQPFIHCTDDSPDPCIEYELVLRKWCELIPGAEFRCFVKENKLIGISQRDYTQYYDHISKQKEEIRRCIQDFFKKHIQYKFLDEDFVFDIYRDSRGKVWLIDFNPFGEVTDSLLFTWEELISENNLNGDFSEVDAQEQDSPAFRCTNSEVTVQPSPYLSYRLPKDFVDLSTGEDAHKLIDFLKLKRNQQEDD
UniProt P20042: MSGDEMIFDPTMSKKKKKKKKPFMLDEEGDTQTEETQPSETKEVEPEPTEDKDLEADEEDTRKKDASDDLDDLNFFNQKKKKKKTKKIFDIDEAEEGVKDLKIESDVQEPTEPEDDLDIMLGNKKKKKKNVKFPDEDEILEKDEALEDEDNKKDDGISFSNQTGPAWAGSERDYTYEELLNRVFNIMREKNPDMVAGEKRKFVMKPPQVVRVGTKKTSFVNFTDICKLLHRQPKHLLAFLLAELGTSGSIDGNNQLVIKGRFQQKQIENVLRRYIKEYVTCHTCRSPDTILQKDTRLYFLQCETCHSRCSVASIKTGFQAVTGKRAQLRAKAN
UniProt P05198: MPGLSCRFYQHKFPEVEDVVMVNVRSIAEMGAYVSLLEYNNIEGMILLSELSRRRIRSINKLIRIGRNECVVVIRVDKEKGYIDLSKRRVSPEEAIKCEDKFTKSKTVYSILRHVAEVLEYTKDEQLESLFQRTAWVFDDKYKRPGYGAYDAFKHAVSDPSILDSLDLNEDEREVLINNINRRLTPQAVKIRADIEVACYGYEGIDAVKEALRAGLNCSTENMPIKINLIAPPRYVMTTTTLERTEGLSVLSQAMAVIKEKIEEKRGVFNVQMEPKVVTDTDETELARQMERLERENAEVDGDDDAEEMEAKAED

The target in assay [1] is full-length ^FLAGheIF2γ expressed in yeast (human) (UniProt P41091). Kind of assay: co-IP; human FLAG-eIF2γ (full length or 1-457) coexpressed with human MYC-eIF2α, HA-eIF2β and MYC-Cdc123 in yeast; anti-FLAG IP, Western blot.
Assay [2] deals with ^FLAGheIF2γ (amino acids 1–457) expressed in yeast (human) (UniProt P41091). The description is as above.
In assay [3] the target is ^FLAGheIF2γ in Flp-In T-REx-293 cells (human) (UniProt P41091). Kind of assay: co-IP; Flp-In T-REx-293 cells with FLAG-heIF2γ or FLAG-hCdc123; around 8 mg lysate (150 mM NaCl, 50 mM Tris-HCl pH 8.2, 1% Triton X-100) on M2 anti-FLAG matrix, 2 h, 4 °C, eluted with 3x FLAG peptide; enrichment from extract to IP, heIF2γ set to 100% (n = 1).
The target in assay [4] is T1, endogenously FLAG-tagged Sui2 (S. cerevisiae) (UniProt P20459).
T1 sequence: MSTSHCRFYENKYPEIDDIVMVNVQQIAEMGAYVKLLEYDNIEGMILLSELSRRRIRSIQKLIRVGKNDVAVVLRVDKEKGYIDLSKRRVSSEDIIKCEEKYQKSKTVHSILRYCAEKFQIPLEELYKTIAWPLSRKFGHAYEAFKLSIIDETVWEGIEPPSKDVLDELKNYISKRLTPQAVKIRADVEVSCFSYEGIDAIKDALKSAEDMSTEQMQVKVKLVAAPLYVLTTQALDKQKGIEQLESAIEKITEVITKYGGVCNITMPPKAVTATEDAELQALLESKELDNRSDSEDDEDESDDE
Kind of assay: co-IP; endogenously FLAG-tagged Sui2, Sui3 or Gcd11 precipitated with anti-FLAG beads from yeast extract, 4 °C, 2 h; Cdc123 signal normalised to the FLAG-tagged subunit, Gcd11 set to 100% (n = 3).

The target in assay [5] is T2, N-terminally 3xFLAG-tagged Sui2 V220E (S. cerevisiae) (UniProt P20459).
T2 sequence: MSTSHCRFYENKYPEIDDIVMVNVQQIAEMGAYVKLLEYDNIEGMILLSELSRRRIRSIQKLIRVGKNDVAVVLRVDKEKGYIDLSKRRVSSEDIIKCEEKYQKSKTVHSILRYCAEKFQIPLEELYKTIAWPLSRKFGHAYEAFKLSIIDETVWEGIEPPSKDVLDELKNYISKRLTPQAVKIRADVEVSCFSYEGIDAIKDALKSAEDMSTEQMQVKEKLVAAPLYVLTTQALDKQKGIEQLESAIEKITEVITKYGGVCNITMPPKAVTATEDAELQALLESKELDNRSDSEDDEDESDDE
The experiment in a line: co-IP; N-terminally 3xFLAG-tagged Sui2 variants (TEF2 promoter) precipitated with anti-FLAG beads from yeast extract; Western blot for myc-Cdc123, Gcd11 and Sui3.

Assay [6] concerns the target T3, N-terminally 3xFLAG-tagged Sui2 L205E (S. cerevisiae) (UniProt P20459).
T3 sequence: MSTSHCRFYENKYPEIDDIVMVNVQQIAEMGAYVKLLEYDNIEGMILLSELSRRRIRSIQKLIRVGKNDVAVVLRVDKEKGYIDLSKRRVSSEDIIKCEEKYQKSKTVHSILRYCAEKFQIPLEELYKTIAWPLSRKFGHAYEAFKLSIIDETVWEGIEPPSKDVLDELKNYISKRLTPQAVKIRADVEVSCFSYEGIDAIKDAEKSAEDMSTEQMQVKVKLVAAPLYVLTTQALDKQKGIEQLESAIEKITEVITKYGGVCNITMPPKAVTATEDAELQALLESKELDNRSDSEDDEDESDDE
The description is as above.

In assay [7] the target is T4, GST-Cdc123 (S. cerevisiae) (UniProt Q05791).
T4 sequence: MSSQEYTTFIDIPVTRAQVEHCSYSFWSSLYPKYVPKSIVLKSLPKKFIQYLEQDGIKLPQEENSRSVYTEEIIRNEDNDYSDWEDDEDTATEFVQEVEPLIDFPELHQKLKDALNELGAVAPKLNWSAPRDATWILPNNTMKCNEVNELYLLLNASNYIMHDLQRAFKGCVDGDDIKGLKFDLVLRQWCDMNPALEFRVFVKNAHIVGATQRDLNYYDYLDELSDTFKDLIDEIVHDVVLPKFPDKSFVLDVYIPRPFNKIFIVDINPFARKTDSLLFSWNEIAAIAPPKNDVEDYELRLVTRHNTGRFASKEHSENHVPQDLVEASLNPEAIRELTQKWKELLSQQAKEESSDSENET
Kind of assay: pull-down; GST-Cdc123 coexpressed with His6-Sui2 or His6-Sui3 in E. coli; lysate on glutathione agarose beads for 3 h; Western blot.

Assay [8] addresses yeast eIF2γ (Gcd11) (S. cerevisiae (endogenous in W303 strains)) (UniProt P32481). The experiment in a line: co-IP; Cdc123-FLAG precipitated with anti-FLAG beads from yeast strains overexpressing HA-tagged Sui2 variants (or Sui3) from the GAL1 promoter, compared with endogenous levels.
The target of assay [9] is T5, C-terminally FLAG-tagged Cdc123 (S. cerevisiae, UniProt Q05791 1-360).
T5 construct: Cdc123 of S. cerevisiae; also called Cdc123^FLAG; source: S. cerevisiae, in lysate; not shown: FLAG, C-terminal, kept
T5 sequence (looked up): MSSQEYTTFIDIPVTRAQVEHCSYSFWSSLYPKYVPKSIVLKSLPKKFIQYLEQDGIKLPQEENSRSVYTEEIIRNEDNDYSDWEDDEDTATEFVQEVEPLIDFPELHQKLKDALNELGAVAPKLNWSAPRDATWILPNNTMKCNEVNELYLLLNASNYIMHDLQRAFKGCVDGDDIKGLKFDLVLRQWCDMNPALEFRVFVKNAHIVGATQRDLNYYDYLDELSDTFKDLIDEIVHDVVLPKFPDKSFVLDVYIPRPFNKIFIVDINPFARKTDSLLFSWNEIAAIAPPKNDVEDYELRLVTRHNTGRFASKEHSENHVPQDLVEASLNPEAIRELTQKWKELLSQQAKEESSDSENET
The description is as above.

On to “human ^MYCCdc123 expressed in yeast (from UniProt O75794 1-336)”, for which the binding entry in assay [1] is on record as “binds”; in assay [2] it was “no binding”.
As for “heIF2β (endogenous) (from UniProt P20042 1-333)”, the binding entry in assay [3] is on record as “binds”.
On the same count and under the same terms, the same measure for “heIF2α (endogenous) (from UniProt P05198 1-315)”: “binds”.
Consider “human ^MYCeIF2α expressed in yeast (from UniProt P05198 1-315)”, for which the binding result in assay [1] is listed as “binds”; in assay [2] it was “no binding”.
Take “human ^HAeIF2β expressed in yeast (from UniProt P20042 1-333)”: the figures for the binding result in assay [1] and in assay [2] were “binds” and “no binding”, respectively.
For the molecule “hCdc123 (endogenous) (from UniProt O75794 1-336)”, the binding result in [3] is given as “binds”.

B1: yeast eIF2β (Sui3) (protein, UniProt P09064 1-285)
chain: MSSDLAAELGFDPALKKKKKTKKVIPDDFDAAVNGKENGSGDDLFAGLKKKKKKSKSVSADAEAEKEPTDDIAEALGELSLKKKKKKTKDSSVDAFEKELAKAGLDNVDAESKEGTPSANSSIQQEVGLPYSELLSRFFNILRTNNPELAGDRSGPKFRIPPPVCLRDGKKTIFSNIQDIAEKLHRSPEHLIQYLFAELGTSGSVDGQKRLVIKGKFQSKQMENVLRRYILEYVTCKTCKSINTELKREQSNRLFFMVCKSCGSTRSVSSIKTGFQATVGKRRRM
For the molecule B1, the binding entry in assay [4] is given as “binds”; in [5] it was “no binding”; in assay [6] it was “no binding”.

B2: His6-Sui3 (protein, UniProt P09064 1-285)
chain: MSSDLAAELGFDPALKKKKKTKKVIPDDFDAAVNGKENGSGDDLFAGLKKKKKKSKSVSADAEAEKEPTDDIAEALGELSLKKKKKKTKDSSVDAFEKELAKAGLDNVDAESKEGTPSANSSIQQEVGLPYSELLSRFFNILRTNNPELAGDRSGPKFRIPPPVCLRDGKKTIFSNIQDIAEKLHRSPEHLIQYLFAELGTSGSVDGQKRLVIKGKFQSKQMENVLRRYILEYVTCKTCKSINTELKREQSNRLFFMVCKSCGSTRSVSSIKTGFQATVGKRRRM
Turning to B2, the binding entry in assay [7] is recorded as “no binding”.

B3: HA-tagged Sui2 (179-304), overexpressed (domain or fragment, UniProt P20459 179-304)
chain: PQAVKIRADVEVSCFSYEGIDAIKDALKSAEDMSTEQMQVKVKLVAAPLYVLTTQALDKQKGIEQLESAIEKITEVITKYGGVCNITMPPKAVTATEDAELQALLESKELDNRSDSEDDEDESDDE
As for B3, the binding entry in [8] and in [9] was “binds” throughout.

B4: HA-tagged Sui2 WT, overexpressed (protein, UniProt P20459 1-304)
chain: MSTSHCRFYENKYPEIDDIVMVNVQQIAEMGAYVKLLEYDNIEGMILLSELSRRRIRSIQKLIRVGKNDVAVVLRVDKEKGYIDLSKRRVSSEDIIKCEEKYQKSKTVHSILRYCAEKFQIPLEELYKTIAWPLSRKFGHAYEAFKLSIIDETVWEGIEPPSKDVLDELKNYISKRLTPQAVKIRADVEVSCFSYEGIDAIKDALKSAEDMSTEQMQVKVKLVAAPLYVLTTQALDKQKGIEQLESAIEKITEVITKYGGVCNITMPPKAVTATEDAELQALLESKELDNRSDSEDDEDESDDE
As for B4, the binding result in [8] was “binds”.

B5: His6-Sui2 (protein, UniProt P20459 1-304)
chain: MSTSHCRFYENKYPEIDDIVMVNVQQIAEMGAYVKLLEYDNIEGMILLSELSRRRIRSIQKLIRVGKNDVAVVLRVDKEKGYIDLSKRRVSSEDIIKCEEKYQKSKTVHSILRYCAEKFQIPLEELYKTIAWPLSRKFGHAYEAFKLSIIDETVWEGIEPPSKDVLDELKNYISKRLTPQAVKIRADVEVSCFSYEGIDAIKDALKSAEDMSTEQMQVKVKLVAAPLYVLTTQALDKQKGIEQLESAIEKITEVITKYGGVCNITMPPKAVTATEDAELQALLESKELDNRSDSEDDEDESDDE
B5: the binding entry in assay [7] is “binds”.

B6: HA-tagged Sui2 (1-178), overexpressed (domain or fragment, UniProt P20459 1-178)
chain: MSTSHCRFYENKYPEIDDIVMVNVQQIAEMGAYVKLLEYDNIEGMILLSELSRRRIRSIQKLIRVGKNDVAVVLRVDKEKGYIDLSKRRVSSEDIIKCEEKYQKSKTVHSILRYCAEKFQIPLEELYKTIAWPLSRKFGHAYEAFKLSIIDETVWEGIEPPSKDVLDELKNYISKRLT
For B6, the binding result in assay [9] is on record as “binds”.

These data come from article PMC8844851 (The Journal of Biological Chemistry, 2022).
